From PubChem BioAssay AID1508623 (National Center for Advancing Translational Sciences (NCATS), 2021) come the findings set out here.

About 450 (0.94%) of roughly 48,000 compounds were called active. Roughly 19% stayed inconclusive and do not appear here. Calls follow the shape of the dose curve; as a rule, active = well fitted inhibition curve with a large enough effect; inconclusive = small, poorly fitted or top-dose-only effect; inactive = no such curve, though single readings can be large or run the other way. Some of the results follow.

A short description of the test: Primary qHTS for Identification of Small Molecule Inhibitors of Huntingtin Promoter Activity. Also: nearly all actives have a fitted effect of over 50% in size. The note with it: HEK293 HTT promoter firefly luciferase reporter (activity 0% = vehicle and -100% = no light), 24 h; series mostly up to 57.5 µM; activity change, negative = inhibition: at the top concentration. In short, it runs like this: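 Quantitative HTS used concentration series of up to 57.5 uM final on HEK293 luciferase reporter cells, 24 h at 37 degrees C. Readout was Dual-Glo firefly luminescence.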
Consider `COCCCNC(=O)N1CCN(c2nnc(C)c3c(C)n(-c4ccc(Cl)cc4)nc23)CC1`, for which the “activity change, negative = inhibition” value was inactive: -2.88%.

`CCOc1cccc(CC(=O)N2CCc3c([nH]c4ccccc34)C2c2ccc(OC)cc2)c1OCC` (stereo not drawn): the “activity change, negative = inhibition” value was inactive: -21.2%.

With `COc1ccc(Cn2c(C(=O)O)c(CNCCc3cccs3)c3ccc(OC)cc32)cc1`, the “activity change, negative = inhibition” value was inactive: -23.1%. With `COc1ccc(-c2c(C)nn3c(C(F)(F)F)cc(C)nc23)cc1OC`, the “activity change, negative = inhibition” value is inactive: -21.7%. With `Cc1oc2ncn(C)c(=O)c2c1C(=O)N1CCN(c2ccc(Cl)cc2)CC1`, the “activity change, negative = inhibition” value was inactive: -34.5%. In the case of `COc1cccc(CNCCCSc2nnnn2C)c1`, the “activity change, negative = inhibition” value is inactive: -18%.

With `Cc1ccccc1CN1C(=O)c2ccccc2S(=O)c2ccc(C(=O)NCc3ccccc3)cc21` (stereo not drawn), the “activity change, negative = inhibition” value is inactive: -28.8%.

With `CC(C)Sc1ncc(Cl)c(C(=O)Nc2c(C(=O)Nc3ccccc3)oc3ccccc23)n1`, the “activity change, negative = inhibition” value is inactive: -3.24%. As to `Cc1nn(C)c2c1c(-c1ccccc1)cc(=O)n2Cc1c(F)cccc1Cl`, the “activity change, negative = inhibition” value was inactive: -7.27%. Next, `Cc1ccccc1Nc1c(-c2ccccc2O)nc2sccn12`: inactive: -21.6%. Regarding `CCc1cccc(NC(=O)c2sc3nc[nH]c(=O)c3c2C)c1`, the “activity change, negative = inhibition” value was inactive: 28.4%. Next, `CCc1ccc(NS(=O)(=O)c2ccc3[nH]cc(C(=O)N4CCCCCC4)c(=O)c3c2)cc1`: inactive: 21.1%; `O=C1CN(C(=O)c2ccc(S(=O)(=O)N3CCCC3)cc2)C(c2ccc(F)cc2)c2cc(F)ccc2N1` (stereo not drawn): inactive: -22.8%. Take `CCOC(=O)Cc1ccc(NC(=O)N2CCC(CN3CCC(C)CC3)CC2)cc1`: the “activity change, negative = inhibition” value is inactive: -17.4%. Turning to `COc1cc(C2C(C(=O)Nc3ccc(C)cc3C)=C(C)Nc3nc(SCc4ccccc4)nn32)cc(OC)c1OC` (stereo not drawn), the “activity change, negative = inhibition” value was inactive: -14.3%. Take `Cc1ccc(CNC(=O)c2cnn3c(C)c(Cc4c(F)cccc4Cl)c(C)nc23)cc1`: the “activity change, negative = inhibition” value is inactive: -9.49%.

On to `Cc1ccc2oc3c(c(=O)c2c1)C(c1cccc(O)c1)N(CCCN1CCOCC1)C3=O` (stereo not drawn), for which the “activity change, negative = inhibition” value is inactive: -8.85%. Under `Nc1[nH]c(=O)ncc1F` stands “inactive”.

As to `Cc1cccc(-c2nnc(SCC(=O)NC3CCCCC3)o2)c1`, the “activity change, negative = inhibition” value is inactive: -29.8%.

For `CCOc1ccc(CCNC(=O)c2ccc(C)c(-n3c(C)nc4cccnc43)c2)cc1OCC`, the “activity change, negative = inhibition” value is inactive: -14.9%.

As for `Cc1cc(Br)ccc1NC(=O)CN1C(=O)c2cccnc2Sc2ccccc21`, the “activity change, negative = inhibition” value is inactive: -20.6%. Next, `COc1ccc(N(Cc2cccs2)C(=O)COc2ccc([N+](=O)[O-])cc2)cc1`: inactive: -27.1%; `CCOc1ccc(C(=O)Nc2cc(-c3ccccc3)no2)cc1`: inactive: 30.7%; `CCN(Cc1ccccc1)C(=O)c1cc2ccc3cccnc3c2[nH]1`: inactive: -1.09%. In the case of `CCOc1ccccc1NC(=O)c1cc2ccc3cccnc3c2[nH]1`, the “activity change, negative = inhibition” value is inactive: 37.8%. With `O=C(O)C(Cc1cc(I)c(O)c(I)c1)c1ccccc1` (stereo not drawn), the “activity change, negative = inhibition” value was inactive: -10.5%. On to `CCCOc1cccc(C2c3c(oc4ccc(F)cc4c3=O)C(=O)N2Cc2ccc3c(c2)OCO3)c1` (stereo not drawn), for which the “activity change, negative = inhibition” value was inactive: -6.57%. As to `Cc1nc(-n2nc(C)c(Cc3ccc4c(c3)OCO4)c2C)sc1C(=O)Nc1ccc(Cl)cc1`, the “activity change, negative = inhibition” value is inactive: -7.68%.
